Reference: PubChem BioAssay AID1030 (National Center for Advancing Translational Sciences (NCATS), 2008)
Hit rate of the full screen: of about 220,000 compounds, about 16,000 (7.3%) were called active. Inconclusive results, whose numbers are uncertain, are shown with a selection of clear calls. Calls follow the shape of the dose curve; as a rule, active = well fitted inhibition curve with a large enough effect (not every such curve was filed as active); inconclusive = small, poorly fitted or top-dose-only effect, or another doubt; inactive = no such curve, though single readings can be large or run the other way. No potency is given beside an inconclusive call; the fits are too rough.

molecular target: Aldehyde dehydrogenase 1A1 (Homo sapiens) (UniProt P00352); experiment: qHTS Assay for Inhibitors of Aldehyde Dehydrogenase 1 (ALDH1A1); conditions: Purified ALDH1A1, NADH fluorescence, propionaldehyde substrate; series mostly up to 75.3 µM;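 as to activity, negative = inhibition: plate controls were no enzyme wells and a reference inhibitor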
Potency is read from the fitted curve at half-maximal effect; tags tell the direction and shape of the fitted curve.

Sequence of UniProt P00352 (P00352 whole entry, looked up): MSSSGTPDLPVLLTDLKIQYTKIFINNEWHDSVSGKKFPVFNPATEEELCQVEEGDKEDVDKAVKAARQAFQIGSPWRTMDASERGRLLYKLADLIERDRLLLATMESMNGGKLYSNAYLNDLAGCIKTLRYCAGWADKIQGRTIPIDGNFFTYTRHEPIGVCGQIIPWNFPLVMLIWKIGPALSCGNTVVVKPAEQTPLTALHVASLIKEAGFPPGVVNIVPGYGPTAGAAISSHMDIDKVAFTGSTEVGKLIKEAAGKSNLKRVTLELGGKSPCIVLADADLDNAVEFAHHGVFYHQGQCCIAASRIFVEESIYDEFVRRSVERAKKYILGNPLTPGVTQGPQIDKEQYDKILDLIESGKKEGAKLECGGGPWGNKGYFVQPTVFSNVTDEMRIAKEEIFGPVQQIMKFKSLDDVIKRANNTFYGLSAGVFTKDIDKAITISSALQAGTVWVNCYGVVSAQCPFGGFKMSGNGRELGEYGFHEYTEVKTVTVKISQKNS

Row | SMILES | Potency | activity, negative = inhibition
1 | N#Cc1c(-c2ccc(F)cc2)ccnc1N1CCOCC1 | inconclusive [inhibitor, single point] | 
2 | CCC(c1nnnn1C1CCCC1)N1CCN(Cc2ccccc2)CC1 (centres undefined) | active: 14.1 µM | 
3 | Cc1cc(=O)[nH]c(N/N=C/c2c(C)nn(-c3ccccc3Cl)c2Cl)n1 | active: 5.01 µM | 
4 | CCCn1nnc(NC(=S)NC(=O)CC)n1 | inconclusive [inhibitor, single point] | 
5 | CCOC(=O)N1CCN(C2=CC(=O)OC23CCCCC3)CC1 | inconclusive [inhibitor, partial curve] | 
6 | Cc1cc(C)nc(SCC(=O)N/N=C/c2cccs2)n1 | inactive | 
7 | COc1ccc(-c2c(C#N)c(SCC(=O)c3cc4ccccc4oc3=O)nc(C)c2C(=O)Nc2ccccc2)cc1 | inconclusive [inhibitor, partial curve, poor fit] | 
8 | CCC(C)(C)n1nnnc1CN1CCC(NC(=O)c2ccccc2C)CC1 | inconclusive [inhibitor, single point] | 
9 | O=C(COC(=O)c1cccnc1Cl)Nc1nc(-c2ccccc2)cs1 | inactive | 
10 | Cc1ccc(Cl)cc1-c1ccc(C=Nc2ccc(N3CCOCC3)cc2)o1 | active: 10 µM | 
11 | COc1ccc(/C=N/NC(=O)CCCOc2ccc(Cl)cc2Cl)cc1 | inconclusive [inhibitor, single point] | 
12 | Cc1cccc(-c2nnc(NC(=O)c3ccc(N4C(=O)CCC4=O)cc3)s2)c1 | inconclusive [inhibitor, single point] | 
13 | CC[C@H]1OC(=O)[C@H](C)[C@@H](O[C@H]2C[C@@](C)(OC)[C@@H](O)[C@H](C)O2)C(C)[C@@H](O[C@@H]2O[C@H](C)C[C@H](N(C)C)[C@@H]2O)[C@](C)(OC)C[C@@H](C)C(=O)[C@H](C)[C@@H](O)[C@]1(C)O (some centres undefined) | inactive | 
14 | O=c1c2c([nH]c3ccccc13)CCCC2 | inconclusive [inhibitor, single point] | 
15 | CCC(=O)N(CCC(c1ccc(C)cc1)c1ccco1)Cc1ccco1 (centres undefined) | active: 22.4 µM | 
16 | CN1C(=O)CSc2ccc(NC(=O)NCCC3=CCCCC3)cc21 | active: 7.94 µM | 
17 | COc1ccc(Cn2c(O)c(C=Nc3ccc(OC)cc3)c3ccccc3c2=O)cc1 | inconclusive [inhibitor, single point] | 
18 | COc1ccc(NC(=S)N(Cc2cccnc2)Cc2ccco2)cc1 | inconclusive [inhibitor, single point] | 
19 | CCCn1c(SCC(=O)c2ccc3c(c2)OCCO3)n[nH]c1=O | inconclusive [inhibitor, single point] | 
20 | COCCCN1C(=O)C(=O)/C(=C(/O)c2ccc(OCC(C)C)cc2)C1c1cccnc1 (centres undefined) | inactive | 
21 | COc1cccc(NC2=C(Cl)C(=O)OC2OC(=O)c2ccco2)c1 (centres undefined) | inactive | 
22 | CCN(CC)S(=O)(=O)c1ccc(NC(=O)CSc2nnc(-c3ccc(F)cc3)o2)cc1 | inactive | 
23 | C=CCn1c(SCC(=O)Nc2ccc(-c3nc4ccc(C)cc4s3)cc2)nnc1-c1ccccc1 | inconclusive [inhibitor, partial curve] | 

Row | SMILES | Potency | activity, negative = inhibition
24 | O=C(c1ccco1)N1CCC2(CC1)CN(c1ccccn1)C2 | inconclusive [inhibitor, partial curve] | 
25 | CN(C)CCN(Cc1ccccc1)c1nccc(N(C)C)c1C#N | inconclusive [inhibitor, single point] | 
26 | CCOC(=O)CSc1nc2ccccc2c(=O)n1NC(=O)c1ccccc1 | inactive | 
27 | CCCNc1nc2ccccc2c(=O)[nH]1 | inconclusive [inhibitor, single point] | 
28 | O=C(CSc1nc2nc3c(cc2c(=O)n1-c1ccccc1)CCCC3)Nc1ccccc1 | inconclusive [inhibitor, full curve] | 
29 | Cc1ccc(N=Nc2c(O)ccc3cc(S(=O)(=O)O)ccc23)cc1 |  | inactive: 8.15% [at 13.5 µM]
30 | CCCCc1ccc(Nc2ncccc2C#N)cc1 | inconclusive [inhibitor, partial curve] | 
31 | CC(C)C[C@H](NC(=O)c1[nH]cnc1C(=O)N[C@H](C)c1ccccc1)C(=O)OCc1ccccc1 | inconclusive [inhibitor, single point] | 
32 | Cc1cccc(CNc2ccnc(-c3ccc(C(=O)N(C)C)cc3)n2)c1 | inconclusive [inhibitor, single point] | 
33 | Cc1cc(C(=O)O)sc1C(N)C(=O)O (centres undefined) | inactive | 
34 | COc1ccc(C(=O)C2CCCN(Cc3ccc4nonc4c3)C2)cc1OC (centres undefined) | inconclusive [inhibitor, single point] | 
35 | N#C/C(=C(/O)CCl)c1nc(-c2ccccc2)cs1 | inconclusive [inhibitor, single point] | 
36 | Cc1ccc(S(=O)(=O)Nc2ccccc2C(=O)Nc2nc(-c3ccc(F)cc3)cs2)cc1 | inconclusive [inhibitor, partial curve] | 
37 | C=CCNC(=O)/C(=C\C=C\c1ccccc1)NC(=O)c1ccc(OCCCC)cc1 | inactive | 
38 | Cc1ccc(NC2(C#N)C(=O)Nc3ccccc32)cc1C (centres undefined) | inconclusive [inhibitor, partial curve] | 
39 | S=c1[nH]cc(Cc2ccccc2)s1 | active: 10 µM | 
40 | CCOC(=O)CN1C(=O)C(O)(c2c(C)[nH]c3ccccc23)c2ccccc21 (centres undefined) | active: 0.282 µM | 
41 | CC(=O)OCC(=O)C1CCC2C3CCC4=CC(=O)CC[C@@]4(C)C3CC[C@]12C (some centres undefined) | inconclusive [inhibitor, single point] | 
42 | O=C(Nc1cccc(S(=O)(=O)N2CCCCC2)c1)c1ccc2c(=O)n3c(nc2c1)CCCCC3 | active: 2.51 µM | 
43 | O=C(Oc1cccnc1)c1cccc(Cl)c1 | inconclusive [inhibitor, single point] | 
44 | C[n+]1c2n(c3ccccc31)N=C(c1ccc(Cl)cc1)CS2 | inconclusive [inhibitor, single point] | 
45 | COc1cc(OC)c(-n2c(C)cc(C=O)c2C)cc1Cl | active: 7.08 µM | 
46 | CN(Cc1ccccc1)C(=O)c1nc2ccccn2c1CN1CCCC1c1nccs1 (centres undefined) | inconclusive [inhibitor, single point] | 

Row | SMILES | Potency | activity, negative = inhibition
47 | Cc1cccc(NC(=S)NCC(C)CSc2ccc(Cl)cc2)c1 (centres undefined) | inconclusive [inhibitor, single point] | 
48 | CN(C)S(=O)(=O)c1cc(NC(=O)COC(=O)c2ccc3c(c2)OCO3)ccc1Cl | inactive | 
49 | c1ccc2c(-c3nc(C4CCCCC4)no3)cc(-c3ccncc3)nc2c1 | inconclusive [inhibitor, partial curve] | 
50 | FC(F)(F)c1ccccc1-c1nccc(-n2ccnc2)n1 | inconclusive [inhibitor, partial curve] | 
51 | CCOc1cc(C2C(C(=O)N3CCOCC3)=C(C)NC3=C2C(=O)CCC3)ccc1O (centres undefined) | inconclusive [inhibitor, single point] | 
52 | O=C(Nc1ccn(Cc2ccccc2)n1)c1ccc(F)cc1 | inconclusive [inhibitor, single point] | 
53 | CN(C)S(=O)(=O)c1ccc(NCC2COc3ccccc3O2)c([N+](=O)[O-])c1 (centres undefined) | inconclusive [inhibitor, partial curve, poor fit] | 
54 | CCOc1cc(/C=C2\CCC/C(=C\c3cc(Cl)c(O)c(OCC)c3)C2=O)cc(Cl)c1O | active: 2.51 µM | 
55 | CCCS(=O)(=O)c1c(S(=O)(=O)CCC)c2c(C)cccn2c1C(=O)OC | inconclusive [inhibitor, single point] | 
56 | COc1ccc(CC(=O)NCc2nnc(SCc3ccc([N+](=O)[O-])cc3)n2C)cc1 | inactive | 
57 | O=C(Nc1ccccc1-c1nnc(SCc2ccc(Cl)cc2Cl)o1)c1ccccc1 | inconclusive [inhibitor, single point] | 
58 | CCOC(=O)c1ccc(NCCOC)c([N+](=O)[O-])c1 | inconclusive [inhibitor, single point] | 
59 | CCOC(=O)c1ccc(CC(=O)c2oc3cc(O)ccc3c2C)o1 | inconclusive [inhibitor, partial curve] | 
60 | CCOC(=O)C1=C(C)NC2=C(C(=O)CC(c3ccc(OC)c(OC)c3)C2)C1c1ccc(C)o1 (centres undefined) | inconclusive [inhibitor, partial curve] | 
61 | Cc1ccc(N/C(CSC(N)=O)=N\S(=O)(=O)c2ccc(C)cc2)cc1 | inconclusive [inhibitor, single point] | 
62 | O=C(CCc1ccccc1)Nc1ncc([N+](=O)[O-])s1 | inactive | 
63 | CCCC(CCC(=O)Nc1nccs1)C(=O)O (centres undefined) | inactive | 
64 | CC(NC1CCCC1)C(=O)Nc1ccccc1-c1ccccc1 (centres undefined) | inconclusive [inhibitor, single point] | 
65 | COc1ccccc1NC(=S)NC(=O)/C=C/c1ccco1 | active: 25.1 µM | 
66 | COc1ccc(C(=O)/C=C/c2ccc(C)cc2)c(OC(=O)c2ccc([N+](=O)[O-])cc2)c1 | inconclusive [inhibitor, partial curve] | 
67 | CCOC(=O)/C(=N\Nc1ccc(Cl)cc1)Sc1nnc(-c2ccc(OC)cc2)n1C | inconclusive [inhibitor, single point] | 
68 | CCOC(=O)C(CC)Sc1ccc2nnc(-c3cccnc3)n2n1 (centres undefined) | inconclusive [inhibitor, single point] | 
69 | O=C(NCCCn1ccnc1)c1ccc(N2CCCCC2)c([N+](=O)[O-])c1 | active: 7.94 µM | 
